Reference: the supplement of paper PMC10126150
Values marked as one replicate rest on one cluster of the flow cell; about a third of the high ones do not repeat.
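Also: ATP exposure 15 min at 22 °C before imaging.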

The sequences below were run on ATP (assay: switch fluorescence ratio, 500 uM ATP over buffer (Cy3 cluster intensity, sum of 5 cycles each) (fold (ratio)); higher = stronger signal-on switching upon ATP binding; sequences stand for … in TCGTCGGCAGCGTCAGATGTGTATAAGAGACAGTTTTTTTTTTTTTTTTTTTTTTTTT…TC). Conditions: aptamer strand: ATP DNA aptamer (quencher-CACCTGGGGGAGTATTGCGGAGGAAGG + anchor), 100 nM annealed; ATP concentration: 500 uM; one replicate.
Outline: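 Five buffer/ATP imaging cycles were run on Cy3-labelled switching-strand clusters on a modified Illumina MiSeq flow-cell, with NaOH stripping and re-annealing between cycles. In each cycle, clusters annealed to 100 nM quencher-labelled ATP aptamer were imaged in selection buffer, then after 15 min with 500 uM ATP at 22 °C. Per cluster, the fluorescence ratio is summed target-cycle over summed buffer-cycle Cy3 intensity, averaged per switch-domain sequence. Only clusters within 100-1000 RFU were kept.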
Sequence AGACTTCATA has a switch fluorescence ratio of 1.01.
In the case of ATTTGTATCT, the switch fluorescence ratio is reported as 1.01.
In the case of ACCACCACCA, the switch fluorescence ratio is reported as 1.36.
For ACTCACTGTG, the switch fluorescence ratio was 1.16.
For CCTCGCGGTG, the switch fluorescence ratio was 2.19.
For ATATCTTCGT, the switch fluorescence ratio was 1.02.
With CATCGGACTA the switch fluorescence ratio was 1.02.
GCTTGTTAGT gave a switch fluorescence ratio of 1.02.
For TGGGTACGG, the switch fluorescence ratio was 1.04.
CCATTGTTTC was tested, and the switch fluorescence ratio was 1.
With CTGGGACAGC the switch fluorescence ratio was 1.01.
CATGGTTATT gave a switch fluorescence ratio of 1.05.
TGGTAGGTTT was tested, and the switch fluorescence ratio was 1.01.
TGTAATAGCT showed a switch fluorescence ratio of 1.24.
CTCGATGTTG showed a switch fluorescence ratio of 0.948.
CTGGACAACT showed a switch fluorescence ratio of 1.08.
Work on ATTGCTCGGG yielded a switch fluorescence ratio of 0.986.
GGGACCAAGA gave a switch fluorescence ratio of 1.02.
TGTGAACCAA gave a switch fluorescence ratio of 1.01.
In the case of AGTGGTATAC, the switch fluorescence ratio is reported as 1.01.
AATTATCTTT gave a switch fluorescence ratio of 1.02.
Work on CGATAGTAAA yielded a switch fluorescence ratio of 1.01.
Work on CAATTCGATT yielded a switch fluorescence ratio of 0.984.
For AGGATGTTAC, the switch fluorescence ratio was 1.01.
TACATCCCTT gave a switch fluorescence ratio of 1.05.
Work on TTGTATACT yielded a switch fluorescence ratio of 1.03.
For GTACTGTTGA, the switch fluorescence ratio was 0.972.
CCAATATCAG was tested, and the switch fluorescence ratio was 0.998.
For ATGAGCGTT, the switch fluorescence ratio was 0.993.
TGGGACGAG was tested, and the switch fluorescence ratio was 1.02.
In the case of TGAGGGAAGC, the switch fluorescence ratio is reported as 1.28.
Sequence TCTCGATCCG has a switch fluorescence ratio of 1.03.
With TCCGTATCTA the switch fluorescence ratio was 1.03.
With CTGAAAGCAC the switch fluorescence ratio was 1.77.
GTTTATCTTG gave a switch fluorescence ratio of 1.04.
Work on TTTGAAATCG yielded a switch fluorescence ratio of 1.03.
For GATAGATCTG, the switch fluorescence ratio was 1.04.
Work on AGGTTCAAGA yielded a switch fluorescence ratio of 1.02.
For GGTGTCGGAA, the switch fluorescence ratio was 0.998.
For AAGTTGACAA, the switch fluorescence ratio was 1.05.
TCGGGGAGGG gave a switch fluorescence ratio of 0.963.
With TAGTAGTTGA the switch fluorescence ratio was 1.05.
Sequence TGGTGGGACA has a switch fluorescence ratio of 0.964.
In the case of GATTACCTGG, the switch fluorescence ratio is reported as 1.02.
GCGGAGCGTC gave a switch fluorescence ratio of 1.15.
Work on TCCGCTCCTC yielded a switch fluorescence ratio of 3.67.
TACCAGACCG gave a switch fluorescence ratio of 1.11.
For AGGCCCGGAA, the switch fluorescence ratio was 1.02.
CTGGAACGGT showed a switch fluorescence ratio of 0.966.
For CGTCTCACGC, the switch fluorescence ratio was 1.02.
Sequence CGTCGGATAG has a switch fluorescence ratio of 1.05.
Work on GGGCTAAACA yielded a switch fluorescence ratio of 0.995.
AGCGATGTGG was tested, and the switch fluorescence ratio was 0.998.
With TATTATGGAC the switch fluorescence ratio was 1.
ATGACCGAAA showed a switch fluorescence ratio of 1.07.
AGGTTTGG gave a switch fluorescence ratio of 0.967.
With CATGGGATC the switch fluorescence ratio was 1.04.
For TGACTTTCTT, the switch fluorescence ratio was 0.985.
ATAGTTCAGG showed a switch fluorescence ratio of 0.982.
Sequence ACCTCTATCG has a switch fluorescence ratio of 1.01.
With TACCGCTACG the switch fluorescence ratio was 1.21.
For GCTCATTATC, the switch fluorescence ratio was 1.04.
With ATTACCACAG the switch fluorescence ratio was 1.1.
AGGGTTGACG showed a switch fluorescence ratio of 0.993.
CGTGTGCATC showed a switch fluorescence ratio of 1.06.
GATACAGTGT gave a switch fluorescence ratio of 0.991.
GTTTTGCCCA gave a switch fluorescence ratio of 1.
Work on ACGCGGAGGA yielded a switch fluorescence ratio of 1.03.
Work on CGCTGGCCTA yielded a switch fluorescence ratio of 0.934.
For TATCGTATGG, the switch fluorescence ratio was 1.05.
With TGAGAGTT the switch fluorescence ratio was 1.
In the case of GTAGTATGTG, the switch fluorescence ratio is reported as 0.996.
In the case of TTTGTGTTCG, the switch fluorescence ratio is reported as 1.04.
For TCTGCAGGCA, the switch fluorescence ratio was 0.961.
TTGATTATGG was tested, and the switch fluorescence ratio was 0.992.
Work on GGGGTGT yielded a switch fluorescence ratio of 0.976.
AAAATTGTTC was tested, and the switch fluorescence ratio was 0.978.
AAGAGGGCTC showed a switch fluorescence ratio of 1.03.
For GATTTCAAGT, the switch fluorescence ratio was 0.957.
With TTGTATGGGC the switch fluorescence ratio was 0.991.
Sequence GTAGCCGGTG has a switch fluorescence ratio of 1.07.
With TCACCGGCGG the switch fluorescence ratio was 1.06.
With TTCAGAACGT the switch fluorescence ratio was 1.01.
GGGAGTACGG gave a switch fluorescence ratio of 0.988.
GGTAGCGTCG gave a switch fluorescence ratio of 0.958.
In the case of GTAAGCCGCG, the switch fluorescence ratio is reported as 1.06.
In the case of TACCGTCGCG, the switch fluorescence ratio is reported as 1.09.
Work on CCGTCAGGGG yielded a switch fluorescence ratio of 1.32.
In the case of TATAAGACGT, the switch fluorescence ratio is reported as 0.978.
With TTTTCACTGT the switch fluorescence ratio was 0.941.
With GTTAGTTCTG the switch fluorescence ratio was 0.994.
Sequence TGTGGGACAT has a switch fluorescence ratio of 1.03.
Work on ACAACGATAG yielded a switch fluorescence ratio of 0.994.
CTTTGTTCAG was tested, and the switch fluorescence ratio was 0.987.
For TTTCGCGTTG, the switch fluorescence ratio was 1.
Sequence TCTCTGGCAC has a switch fluorescence ratio of 2.24.
Sequence CCCTCGGAGT has a switch fluorescence ratio of 1.
Work on AACCAGTCTC yielded a switch fluorescence ratio of 1.
With GTTGATAGGC the switch fluorescence ratio was 0.995.
Sequence GATTATTTCC has a switch fluorescence ratio of 1.02.
For TTGAGACGCC, the switch fluorescence ratio was 1.08.
GAGGTTCGAA gave a switch fluorescence ratio of 1.
TACGTTCCGT showed a switch fluorescence ratio of 1.09.
With TAACCGCGG the switch fluorescence ratio was 0.951.
AAAGAGGCTA showed a switch fluorescence ratio of 1.02.
ACATGCGTAT gave a switch fluorescence ratio of 1.01.
In the case of TTGGCCGGTG, the switch fluorescence ratio is reported as 1.04.
Sequence ATTGTGTAGA has a switch fluorescence ratio of 1.06.
In the case of TGAAAGTTAA, the switch fluorescence ratio is reported as 1.34.
Work on AGGGCTGAGG yielded a switch fluorescence ratio of 1.03.
With ATTTCGAGAT the switch fluorescence ratio was 1.01.
AAATTTTGCA gave a switch fluorescence ratio of 0.997.
TGTCGGTAAC was tested, and the switch fluorescence ratio was 1.01.
With TTGGATATA the switch fluorescence ratio was 1.05.
Work on GTGTCGAGCG yielded a switch fluorescence ratio of 0.982.
TCGATGGTTA was tested, and the switch fluorescence ratio was 1.05.
In the case of TGCGCCGACG, the switch fluorescence ratio is reported as 0.986.
In the case of TATCTACGCA, the switch fluorescence ratio is reported as 1.99.
CCCACGTGGT gave a switch fluorescence ratio of 1.
With AGGTAATTAA the switch fluorescence ratio was 1.03.
Work on AGCTCCG yielded a switch fluorescence ratio of 1.05.
Work on ACTGAATATG yielded a switch fluorescence ratio of 1.04.
AATTGGGTCC gave a switch fluorescence ratio of 1.03.
Work on GTAGAGGGTT yielded a switch fluorescence ratio of 0.98.
Sequence TTTATGACA has a switch fluorescence ratio of 1.04.
CTGACGCCTT was tested, and the switch fluorescence ratio was 2.63.
ATGCCACGCG was tested, and the switch fluorescence ratio was 1.08.
TGAGTGTGGC gave a switch fluorescence ratio of 1.1.
TATTCTTTCG gave a switch fluorescence ratio of 0.993.
With CGTATTTAGG the switch fluorescence ratio was 1.02.
Sequence TCTAATGGTG has a switch fluorescence ratio of 1.
For GCGATGATA, the switch fluorescence ratio was 0.978.
AGACTCGGAC gave a switch fluorescence ratio of 1.02.
GACTGTGTCG showed a switch fluorescence ratio of 0.954.
AAGAGAGGAT gave a switch fluorescence ratio of 1.02.
CGAGCAACG was tested, and the switch fluorescence ratio was 1.11.
With CTAGCATTTA the switch fluorescence ratio was 1.06.
AGCGGTTAAC was tested, and the switch fluorescence ratio was 1.05.
Sequence GGTTGGTCGT has a switch fluorescence ratio of 1.
Sequence TTCATGTGGT has a switch fluorescence ratio of 0.993.
GTAGGATGGG was tested, and the switch fluorescence ratio was 1.04.
With TTTACCACGT the switch fluorescence ratio was 0.998.
With TAACATAGGT the switch fluorescence ratio was 0.998.
TACCTTGCGT was tested, and the switch fluorescence ratio was 1.01.
With ATTCAGAGTC the switch fluorescence ratio was 1.06.
GGTTGTTGCG was tested, and the switch fluorescence ratio was 0.97.
CACCGCGGCC showed a switch fluorescence ratio of 2.62.
For TTTGTTCAGC, the switch fluorescence ratio was 0.952.
GTTGGGAGAA was tested, and the switch fluorescence ratio was 0.992.
GATTCTGCAG gave a switch fluorescence ratio of 0.991.
With CGCACAGGGT the switch fluorescence ratio was 1.25.
AGGTTCCGTA showed a switch fluorescence ratio of 1.02.
AAGAGCCAGG gave a switch fluorescence ratio of 1.09.
TCTTTGCAAA gave a switch fluorescence ratio of 1.19.
TAATTAAC showed a switch fluorescence ratio of 0.947.
CGTACCACGA showed a switch fluorescence ratio of 1.
TAACCGGCGT was tested, and the switch fluorescence ratio was 1.04.
TCCTCATACC showed a switch fluorescence ratio of 1.64.
Work on CCAGCGTATC yielded a switch fluorescence ratio of 1.5.
For CACGAAATGT, the switch fluorescence ratio was 1.11.
TTGGCCAGAC showed a switch fluorescence ratio of 0.998.
TAAGGACAGC showed a switch fluorescence ratio of 1.01.
Sequence TAACATCCAT has a switch fluorescence ratio of 1.02.
Sequence ATGAACTCTG has a switch fluorescence ratio of 1.
For GAAGCACAGC, the switch fluorescence ratio was 1.04.
In the case of CTAACTTTGA, the switch fluorescence ratio is reported as 0.983.
Sequence TGATTAAATG has a switch fluorescence ratio of 1.07.
With CGATATCTCC the switch fluorescence ratio was 1.49.
With TTCATATTTC the switch fluorescence ratio was 1.14.
In the case of TATACGAGTA, the switch fluorescence ratio is reported as 0.995.
Sequence GATGACAACG has a switch fluorescence ratio of 0.975.
Sequence AACGCCAGT has a switch fluorescence ratio of 1.34.
With AGCAAACCCG the switch fluorescence ratio was 1.08.
With AATCGTTATG the switch fluorescence ratio was 0.989.
Work on GGCATTGAAG yielded a switch fluorescence ratio of 1.02.
GCTTTACTTT gave a switch fluorescence ratio of 1.01.
Work on TCACGAAATA yielded a switch fluorescence ratio of 1.13.
Work on GGCAAATGGC yielded a switch fluorescence ratio of 0.995.
TAGTAGGGCC was tested, and the switch fluorescence ratio was 0.975.
ATGGCGTCC showed a switch fluorescence ratio of 0.958.
Work on CGGAAGCGTT yielded a switch fluorescence ratio of 1.03.
For AGTGAGGGT, the switch fluorescence ratio was 1.
GAATGTACG gave a switch fluorescence ratio of 0.984.
GGGTACCAAA showed a switch fluorescence ratio of 0.99.
Sequence TCTTAGGTAG has a switch fluorescence ratio of 0.961.
Sequence AAGCTTGCTG has a switch fluorescence ratio of 0.995.
For TGATCTTCG, the switch fluorescence ratio was 1.02.
Sequence GAAATGCGAA has a switch fluorescence ratio of 1.06.
GACAACTCGG was tested, and the switch fluorescence ratio was 1.
CGAACTCCCC showed a switch fluorescence ratio of 3.71.
In the case of AGGGTTTAAG, the switch fluorescence ratio is reported as 0.973.
Work on ACTTCTACAT yielded a switch fluorescence ratio of 1.21.
With GTTGCTTGCT the switch fluorescence ratio was 0.998.
CGTCGGTCCT showed a switch fluorescence ratio of 0.978.
CATTTGACGC was tested, and the switch fluorescence ratio was 1.14.
Sequence GAATAAGCCT has a switch fluorescence ratio of 1.19.
TGACTACTTT gave a switch fluorescence ratio of 1.06.
For AGCAGGCAGG, the switch fluorescence ratio was 1.06.
CAGCAATGAA gave a switch fluorescence ratio of 1.24.
Work on AGGATCAGTA yielded a switch fluorescence ratio of 0.987.
AAGGGTAAG gave a switch fluorescence ratio of 1.04.
